According to article PMC12199426:
No constants are given. Whether binding was seen depends on the method and setting. Binding seen in cells or lysates may run through a third protein. Some binding calls cover weakened binding; strength is not graded here. For part of these data: Where a sequence is shown, tags or fusion partners need not be part of it.

Sequences of proteins named here, by UniProt entry; tags and fusion partners are left off.
UniProt O35286: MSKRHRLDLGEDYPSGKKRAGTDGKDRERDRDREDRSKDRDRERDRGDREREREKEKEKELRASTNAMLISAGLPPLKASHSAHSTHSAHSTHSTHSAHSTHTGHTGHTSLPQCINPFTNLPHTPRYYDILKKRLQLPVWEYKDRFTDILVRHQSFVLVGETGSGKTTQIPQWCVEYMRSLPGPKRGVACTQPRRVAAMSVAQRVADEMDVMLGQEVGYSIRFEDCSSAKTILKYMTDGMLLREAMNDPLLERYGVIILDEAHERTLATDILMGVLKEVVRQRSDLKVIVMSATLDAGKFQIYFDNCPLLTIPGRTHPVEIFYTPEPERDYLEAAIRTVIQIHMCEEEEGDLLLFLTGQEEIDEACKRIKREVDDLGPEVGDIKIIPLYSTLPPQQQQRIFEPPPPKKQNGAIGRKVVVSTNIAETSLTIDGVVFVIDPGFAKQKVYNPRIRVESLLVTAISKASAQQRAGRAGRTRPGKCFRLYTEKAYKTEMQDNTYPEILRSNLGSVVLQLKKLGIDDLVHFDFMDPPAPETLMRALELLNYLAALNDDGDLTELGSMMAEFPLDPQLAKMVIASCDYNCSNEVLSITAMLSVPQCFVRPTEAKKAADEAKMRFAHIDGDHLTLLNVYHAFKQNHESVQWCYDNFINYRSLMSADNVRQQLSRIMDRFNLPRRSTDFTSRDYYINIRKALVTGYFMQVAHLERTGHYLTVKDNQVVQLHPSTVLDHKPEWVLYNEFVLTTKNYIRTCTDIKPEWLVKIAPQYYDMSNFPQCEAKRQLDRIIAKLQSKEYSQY
UniProt Q60668: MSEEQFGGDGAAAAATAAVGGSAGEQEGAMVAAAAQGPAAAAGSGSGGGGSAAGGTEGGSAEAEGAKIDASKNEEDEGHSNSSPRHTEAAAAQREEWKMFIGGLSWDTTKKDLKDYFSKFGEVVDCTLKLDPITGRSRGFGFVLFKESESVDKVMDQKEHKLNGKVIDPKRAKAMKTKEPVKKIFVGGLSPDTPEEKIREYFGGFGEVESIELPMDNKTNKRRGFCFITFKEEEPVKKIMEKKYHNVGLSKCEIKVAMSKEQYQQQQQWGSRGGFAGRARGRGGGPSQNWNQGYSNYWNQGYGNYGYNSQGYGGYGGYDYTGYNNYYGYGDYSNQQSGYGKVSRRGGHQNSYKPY

T1: Breast cancer amplified sequence 2 (Bcas2) (mouse (endogenous in splenic B cells)) (UniProt Q9D287)
T1 sequence: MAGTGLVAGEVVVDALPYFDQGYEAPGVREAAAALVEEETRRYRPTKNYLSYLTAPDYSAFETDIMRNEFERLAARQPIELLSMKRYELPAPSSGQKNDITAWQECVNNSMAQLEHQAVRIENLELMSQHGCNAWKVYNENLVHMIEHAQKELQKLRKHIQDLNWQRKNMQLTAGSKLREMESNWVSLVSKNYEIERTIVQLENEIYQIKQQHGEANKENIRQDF

T2: full-length Bcas2 with FLAG tag (UniProt Q9D287)
T2 sequence: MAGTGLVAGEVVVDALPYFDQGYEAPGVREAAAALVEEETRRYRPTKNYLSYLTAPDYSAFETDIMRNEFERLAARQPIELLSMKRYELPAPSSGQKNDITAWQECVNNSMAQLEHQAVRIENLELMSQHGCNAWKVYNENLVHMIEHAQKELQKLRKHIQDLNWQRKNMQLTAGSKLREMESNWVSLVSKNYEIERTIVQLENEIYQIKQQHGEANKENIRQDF


Experiments:
[1] = target: T1, Breast cancer amplified sequence 2 (Bcas2) (mouse (endogenous in splenic B cells)); assay: co-IP; extracts of LPS-activated mouse splenic B cells; Bcas2 antibody overnight at 4°C, protein A/G beads, western blotting
[2] = target: T1, Breast cancer amplified sequence 2 (Bcas2) (mouse (endogenous in splenic B cells)); assay: condition: only splenic B cells without LPS stimulation; co-IP; extracts of mouse splenic B cells without LPS stimulation ex vivo; Bcas2 antibody, protein A/G beads, western blotting
[3] = target: T2, full-length Bcas2 with FLAG tag; assay: co-IP; 293T cells transfected with FLAG-tagged Bcas2 (full length or coiled-coil deletions) and SRSF7-HA; IP by the FLAG tag

Molecule | binding [1] | binding [2] | binding [3]
DHX15 (from UniProt O35286 1-795) | binds | no binding | 
HNRNP K (from UniProt P61979 1-463) | binds |  | 
SRSF7-HA (protein, UniProt Q8BL97 1-267) MRSSARGRPLQAATAFFLSLFFFLRRFERGFWLWGGDSETKVYVGNLGTGAGKGELERAFSYYGPLRTVWIARNPPGFAFVEFEDPRDAEDAVRGLDGKVICGSRVRVELSTGMPRRSRFDRPPARRPFDPNDRCYECGEKGHYAYDCHRYSRRRRSRSRSRSHSRSRGRRYSRSRSRSRGRRSRSASPRRSRSVSLRRSRSASLRRSRSGSIIGSRYFQSRSRSRSRSRSISRPRSSRSKSRSPSPKRSRSPSGSPHRSASPERMD |  |  | binds

Now from value to molecule:

binding [1] | binding [2] | binding [3] | Molecule
binds |  |  | HNRNP D (from UniProt Q60668 1-355)
binds |  |  | SRSF7 (protein, UniProt Q8BL97 1-267) MRSSARGRPLQAATAFFLSLFFFLRRFERGFWLWGGDSETKVYVGNLGTGAGKGELERAFSYYGPLRTVWIARNPPGFAFVEFEDPRDAEDAVRGLDGKVICGSRVRVELSTGMPRRSRFDRPPARRPFDPNDRCYECGEKGHYAYDCHRYSRRRRSRSRSRSHSRSRGRRYSRSRSRSRGRRSRSASPRRSRSVSLRRSRSASLRRSRSGSIIGSRYFQSRSRSRSRSRSISRPRSSRSKSRSPSPKRSRSPSGSPHRSASPERMD
